Source: PubChem BioAssay AID1346428 (National Center for Advancing Translational Sciences (NCATS), 2018)
Values joined by “and” are separate entries in the source; they are usually repeats but may differ in a detail not shown here. Equal entries are not always repeated. Hit rate of the full screen: of about 48,000 compounds, about 1,200 (2.5%) were called active. Inconclusive results (about 2%) are left out.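 Rule for the calls: active = activation of at least 60% and not above a set upper limit (about 1 call in 100 departs from these limits); inconclusive = activation of 40% to 60%, or above that upper limit; inactive = activation under 40%.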 The list shows a part of the results.
Note: 0% is about no effect.

What follows are compounds tested against Probable G-protein coupled receptor 32 (Homo sapiens) (UniProt O75388) (assay: qHTS for Agonists of Human Resolvin D1 Receptor DRV1). Settings: CHO-K1 GPR32 beta-arrestin PathHunter luminescence, 90 min; at 76.9 µM; active compounds read high; zero percent set by DMSO-only wells.
UniProt O75388, sequence (O75388 whole entry, looked up): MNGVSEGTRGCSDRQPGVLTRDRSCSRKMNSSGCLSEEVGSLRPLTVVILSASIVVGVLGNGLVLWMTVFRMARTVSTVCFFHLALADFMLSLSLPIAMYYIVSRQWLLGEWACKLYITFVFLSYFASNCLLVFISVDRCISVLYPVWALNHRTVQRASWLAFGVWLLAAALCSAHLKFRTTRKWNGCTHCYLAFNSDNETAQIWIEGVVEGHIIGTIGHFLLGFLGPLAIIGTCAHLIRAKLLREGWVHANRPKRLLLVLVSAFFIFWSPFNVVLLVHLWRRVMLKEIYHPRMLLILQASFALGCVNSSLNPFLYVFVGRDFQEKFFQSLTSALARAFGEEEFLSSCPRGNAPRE
Outline: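 Luminescent readout of beta-Gal complementation quantifies ligand-induced beta-arrestin association with GPR32 in CHO-K1 cells; 90 min compound incubation at 37 °C, detection 1 h at room temperature.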
For O=C(NCCc1ccccc1)c1ccc(CSc2nc3ccncc3n2Cc2ccccc2)cc1, the activation was inactive: -22.5%.
COc1ccc(Br)cc1CNC(=O)CN1C(=O)CSc2ccc(S(=O)(=O)N3CCOCC3)cc21 was tested, and the activation was inactive: -13.6%.
With Cc1ccc(NC(=O)c2cc3c(=O)n(Cc4cccnc4)ccc3nc2C)cc1F the activation was inactive: -4.01%.
In the case of CCC(C(=O)NCc1ccccc1)n1ncn2c(cc3occc32)c1=O (centres undefined), the activation is reported as inactive: -20.4%.
Cc1cccc(C(=O)Nc2cccc(C(=O)OCc3cc(=O)n4ccsc4n3)c2)c1 was tested, and the activation was inactive: -12.7%.
In the case of CCOC(=O)c1ccc2ncc(C(=O)OCC)c(Nc3ccc(C)c(Br)c3)c2c1, the activation is reported as inactive: -5.33%.
For COc1ccc(NC(=O)CNS(=O)(=O)c2cccs2)c(OC)c1, the activation was inactive: -2.13%.
In the case of COc1ccc(OC(C)C(=O)NCc2nc(-c3ccc(Cl)cc3)no2)cc1 (centres undefined), the activation is reported as inactive: 5.79%.
For COc1ccccc1NC(=O)C1=C(C)Nc2ncnn2C1c1ccccn1 (centres undefined), the activation was inactive: -9.74%.
With Cn1c(=O)c2[nH]c(-c3ccccc3)nc2n(C)c1=O the activation was inactive: 0.824%.
For O=c1c2oc3ccccc3c2n(Cc2cccc(C(F)(F)F)c2)c(=O)n1Cc1ccc2c(c1)OCO2, the activation was inactive: -18.2%.
For COc1ccc(OC)c(CNC(=O)c2cccc(NC(=O)N3CCSc4ncccc43)c2)c1, the activation was inactive: -5.85%.
NS(=O)(=O)c1cc2c(cc1Cl)NC=NS2(=O)=O was tested, and the activation was inactive: -2.18% and inactive: -0.118%.
CC(C)Sc1ncc(Cl)c(C(=O)Nc2ccc(S(=O)(=O)N3CCCCC3C)cc2)n1 (centres undefined) was tested, and the activation was inactive: -17.1%.
For CCOc1ccc(NC(=O)CSc2cc(C)c3ccccc3n2)cc1, the activation was inactive: -7.91%.
For O=C(NCc1cccs1)c1nn(-c2ccccc2)nc1CO, the activation was inactive: -13.3%.
With CCOc1ccc(CNC(=O)CN2C(=O)CCn3nc(-c4cn(C)c5ccccc45)cc32)cc1OC the activation was inactive: 17.6%.
CCCn1c2ccccc2c2cnn(CC(=O)Nc3cccc(C(=O)OCC)c3)c(=O)c21 was tested, and the activation was inactive: -15.3%.
In the case of CC(C)OC(=O)c1cc2c(OCC(O)CNC(C)(C)C)cccc2[nH]1 (centres undefined), the activation is reported as inactive: 14.3%.
For Cc1ccc(S(=O)(=O)c2nc(-c3ccco3)oc2SC(C)C)cc1, the activation was inactive: -39.2%.
For Cc1ccc(NC(=O)Cn2c(=O)n(-c3ccc(C)cc3)c(=O)c3ccc(C(=O)NCc4ccccc4Cl)cc32)cc1, the activation was inactive: -2.77%.
For COc1ccc(CCNC(=O)Cc2c(C)c3c(cc(C)c4c(C)c(C)oc43)oc2=O)cc1OC, the activation was inactive: -7.54%.
With COc1ccc(NC(=O)c2cc(-c3ccc4c(c3)OCO4)on2)c(OC)c1 the activation was inactive: -4.18%.
For CCOC(=O)c1cccc(NC(=O)CCS(=O)(=O)c2ccc(Br)s2)c1, the activation was inactive: -7.97%.
For Cc1ccc(NC(=O)CN2Cc3ccccc3C2=O)c(C)c1, the activation was inactive: -12.2%.
With CN1CC(=O)N/C1=N/C(=O)Nc1cccc(Cl)c1 the activation was inactive: -5.37% and inactive: -58.5%.
For CC(=O)Nc1nonc1-c1nnc(SCc2ccc(F)cc2Cl)n1C, the activation was inactive: -1.13%.
For Cc1cc(C)cc(NC(=O)c2sc3nc(-c4ccccc4)cn3c2C)c1, the activation was inactive: -24.3%.
In the case of CC1(C(=O)NC2CCCCC2)Cc2ccccc2C(=O)N1Cc1ccc(Cl)cc1 (centres undefined), the activation is reported as inactive: -24.3%.
In the case of COc1cccc(C2C(C(=O)Nc3ccc(Cl)cc3)=C(C)Nc3c(C(=O)Nc4ccccc4)cnn32)c1OC (centres undefined), the activation is reported as inactive: -11.6%.
In the case of Cn1c(=O)c2c(nc(SCC(=O)Nc3ccc(F)cc3F)n2Cc2ccccc2)n(C)c1=O, the activation is reported as inactive: 10.5%.
Cc1c(C)n(Cc2ccc(F)cc2)c2ccc(C(=O)N3CCN(c4ccc(Cl)cc4)CC3)cc12 was tested, and the activation was inactive: -24.7%.
COC(=O)c1ccccc1C(=O)c1ccc(OCCN2CCCCC2)cc1 was tested, and the activation was inactive: -6.16%.
For CCOC(=O)C1CCN(c2cc3c(cc2NC(=O)c2ccc(OC)c(OC)c2)n(C)c(=O)n3C)CC1, the activation was inactive: -14%.
CC1CCCCN1S(=O)(=O)c1ccc(F)c(C(=O)Nc2ccccc2C(F)(F)F)c1 (centres undefined) was tested, and the activation was inactive: -10.2%.
Cc1cn2c(=O)cc(COc3cc(C)c(Cl)c(C)c3)nc2s1 was tested, and the activation was inactive: -3.23%.
CCC(C)NC(=O)Cn1c(=O)n(CCCC(=O)NCc2ccc(C)cc2)c(=O)c2ccccc21 (centres undefined) was tested, and the activation was inactive: -0.937%.
With CCOc1ccc(NC(=O)CN(c2ccccc2OCC)S(=O)(=O)c2ccccc2)cc1 the activation was inactive: -5.86%.
For CCOc1cc2sc(N3CCC(C(=O)Nc4ccc(C(C)C)cc4)CC3)nc2cc1Br, the activation was inactive: -26.9%.
In the case of Cc1cccc(CNC(=O)Cc2csc3ccccc23)c1, the activation is reported as inactive: -24.9%.
With COc1ccc(S(=O)(=O)N2CCN(Cc3nc4ccc(C)cc4o3)CC2)cc1OC the activation was inactive: -11.2%.
For O=C(O)Cc1c[nH]c2ccc(O)cc12, the activation was inactive: 14.1%.
Cc1cc(=O)n(Cc2cccc(Br)c2)c2c1c(C)nn2-c1ccccc1 was tested, and the activation was inactive: -11.5%.
For Cc1cc(Cl)ccc1NS(=O)(=O)c1ccc2c(c1)CCN2S(C)(=O)=O, the activation was inactive: 18.9%.
In the case of Cc1ccc(Nc2nnc(-c3ccc(C)c(S(=O)(=O)N4CCCCC4)c3)c3ccccc23)cc1, the activation is reported as inactive: 4.03%.
In the case of Cc1ccc(C(CC(=O)NCC2(c3ccccc3)CCCC2)c2ccccc2)c(O)c1 (centres undefined), the activation is reported as active: 63.3%.
For Cc1ccc(CCNC(=O)CN2C(=O)COc3ccc(S(=O)(=O)N4CCCCC4)cc32)cc1, the activation was inactive: -21.6%.
CCOc1ccc2c(c1)[C@@H]1C=CC[C@@H]1[C@H](c1ccccc1Cl)N2 was tested, and the activation was inactive: -14.2%.
In the case of Cc1ccc(CNC(C)c2ccccc2)s1 (centres undefined), the activation is reported as inactive: 0.248%.
In the case of CC(C)(C)OC(=O)N1CCC(c2c(C(=O)Nc3ccc4c(c3)OCCO4)cnn2-c2ccc(F)cc2)CC1, the activation is reported as inactive: -36.1%.
For COc1ccc(OC)c(NCc2cccn2-c2nnc(N3CCC(C)CC3)s2)c1, the activation was inactive: -18.5%.
With COc1ccc(C2C(=O)N(C3CCCCCC3)CC(=O)N2CCc2ccccc2)cc1 (centres undefined) the activation was inactive: -0.91%.
For O=C(NCCc1ccccc1)c1ccc2c(c1)N(Cc1ccccc1)C(=O)c1ccccc1S2=O (centres undefined), the activation was inactive: -15%.
For Cc1cccc(-c2nc3c(cnn3-c3ccccc3)c(=O)n2-c2cccc(Cl)c2)c1, the activation was inactive: 5.53%.
